In the supplement of paper PMC3334620:
Over roughly 33,000 sequences, “E-score (-0.5 to 0.5)” has its median near -0.043; the highest 2% begin near 0.37. The list shows a part of the results.

Biological target: T1, Upc2 (UniProt Q12151)
T1 sequence: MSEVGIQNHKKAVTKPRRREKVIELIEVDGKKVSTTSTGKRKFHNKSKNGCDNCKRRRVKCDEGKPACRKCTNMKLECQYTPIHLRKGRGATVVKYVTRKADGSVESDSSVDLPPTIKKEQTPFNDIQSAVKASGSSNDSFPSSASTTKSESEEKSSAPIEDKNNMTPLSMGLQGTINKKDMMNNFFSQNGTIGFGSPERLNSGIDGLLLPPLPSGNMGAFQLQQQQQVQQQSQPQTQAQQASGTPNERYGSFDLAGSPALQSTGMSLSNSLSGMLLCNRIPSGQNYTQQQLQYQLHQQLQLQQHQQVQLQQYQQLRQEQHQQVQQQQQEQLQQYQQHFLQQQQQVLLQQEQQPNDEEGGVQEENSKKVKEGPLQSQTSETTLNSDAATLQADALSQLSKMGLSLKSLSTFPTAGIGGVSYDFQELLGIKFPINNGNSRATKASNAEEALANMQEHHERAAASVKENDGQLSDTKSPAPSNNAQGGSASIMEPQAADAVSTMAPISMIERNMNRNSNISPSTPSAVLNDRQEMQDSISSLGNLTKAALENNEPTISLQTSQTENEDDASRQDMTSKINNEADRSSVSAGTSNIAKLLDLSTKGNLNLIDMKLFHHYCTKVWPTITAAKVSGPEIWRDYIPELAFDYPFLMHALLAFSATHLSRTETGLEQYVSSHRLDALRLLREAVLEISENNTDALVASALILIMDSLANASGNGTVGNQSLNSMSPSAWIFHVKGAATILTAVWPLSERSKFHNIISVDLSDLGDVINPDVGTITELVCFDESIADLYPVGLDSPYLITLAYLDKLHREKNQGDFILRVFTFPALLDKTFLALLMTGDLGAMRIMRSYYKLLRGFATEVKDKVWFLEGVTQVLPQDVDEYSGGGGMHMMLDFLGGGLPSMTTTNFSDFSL
Experiment: PBM E-score (8-mer binding enrichment) (E-score (-0.5 to 0.5)); higher = stronger / more preferred TF binding; most listed sequences are background and not binding sites
Details: protein concentration: 200 nM; construct: GST-full length
Summary of the method: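 PURExpress in vitro transcription/translation supplied GST-tagged yeast transcription factors, either full-length or DNA-binding domain. Applied at about 100-200 nM to universal all-10-mer Agilent arrays double-stranded by primer extension, the bound protein was detected with fluorescent anti-GST. E-scores, modified Wilcoxon-Mann-Whitney statistics, were given by the Universal PBM Analysis Suite to ungapped eight-base words pooled with their reverse complements after masliner normalisation.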

| Sequence | PBM E-score |
| --- | --- |
| ACGACTGC | 0.315 |
| GAGCCACA | -0.0946 |
| ATAGATTG | 0.01 |
| CGCCAAAG | -0.324 |
| CTGTGCTA | -0.154 |
| CTATCGCA | 0.0282 |
| GCCTTGTA | -0.102 |
| ATGTGACA | -0.00596 |
| CGTAGGTA | 0.0321 |
| CCCAATCA | -0.165 |
| ATCGATTG | 0.0896 |
| AACGCCAG | 0.0051 |
| GCAAGGGC | -0.275 |
| CCGGCACC | -0.204 |
| CTTATGCC | -0.0216 |
| CACGCGCG | -0.095 |
| TTGCCAAA | 0.122 |
| AACCCTGA | -0.142 |
| TACAAACA | 0.113 |
| CATGCCTA | -0.28 |
| CCCTCGCC | -0.064 |
| GAACATGA | -0.0854 |
| CCGCTTAC | 0.176 |
| CGAAATTA | 0.107 |
| CATCCCGG | -0.244 |

| Sequence | PBM E-score |
| --- | --- |
| ACCTGTAG | -0.118 |
| GTGGCAGA | -0.211 |
| ATGTGCCG | -0.129 |
| ACAAGAAG | -0.106 |
| ATAAGAGG | 0.21 |
| AACAGCCT | -0.199 |
| ATCCTGAC | -0.109 |
| GCCACCGA | -0.216 |
| AGACCGAC | 0.115 |
| AGCACTGA | -0.175 |
| ACGTTATC | 0.0616 |
| CGCTAACA | 0.0561 |
| TCTTGCAA | 0.0489 |
| ATATTTTA | 0.134 |
| CGAGTATA | 0.267 |
| ACATATGC | 0.00119 |
| CCCAGGGA | -0.29 |
| CGAAATCC | 0.00047 |
| TGGAGTAA | 0.00689 |
| CCCATAAC | -0.0388 |
| AGTTTATA | 0.129 |
| ATCAGTAG | -0.0285 |
| ATCCGACC | 0.135 |
| ACTGCGCA | 0.155 |
| AATTACTG | -0.167 |

| Sequence | PBM E-score |
| --- | --- |
| ACCCCATC | -0.05 |
| ACAGTTGA | -0.212 |
| CATGGACC | -0.151 |
| AGGTAAAG | 0.0594 |
| ACAAGCCC | -0.1 |
| CCGGACCA | -0.0772 |
| ACTTGCGA | 0.156 |
| AAGTATAT | 0.104 |
| ATGGCGTC | -0.0819 |
| AGCTTCCG | -0.0739 |
| CCATGTCG | 0.115 |
| CGAATTAA | 0.306 |
| AAACGTGC | 0.23 |
| CCTGAACC | -0.146 |
| GTATACAC | 0.349 |
| AGCCGGAG | -0.164 |
| AGGATCGA | 0.122 |
| ACAGGCAT | -0.079 |
| CCTTGGAC | -0.0581 |
| CTTAGTGC | -0.128 |
| GGGGACAC | -0.234 |
| AGCAAGCG | 0.13 |
| GGCAGCCC | -0.106 |
| CCATGTCA | -0.227 |
| GAAGGCAC | 0.00587 |

| Sequence | PBM E-score |
| --- | --- |
| GTGTCCGA | 0.19 |
| AAGACCTT | -0.0994 |
| ATTCCGTC | -0.25 |
| TGTCCAAA | -0.0722 |
| GTTGCGCA | -0.0544 |
| CCCGCTTC | -0.155 |
| GTTAAAAA | 0.11 |
| ATCAATTC | -0.0615 |
| ACCAGCCT | -0.124 |
| GCTTGTCC | -0.034 |
| CCAGCGAG | -0.0577 |
| CTTGGAAA | 0.0884 |
| AGGAGGAT | -0.168 |
| CACCGGGC | -0.273 |
| GGGGGTGA | -0.208 |
| AACCCACT | 0.0108 |
| AAGCCTAC | -0.222 |
| AACCATGG | -0.0402 |
| AGCCACGG | -0.167 |
| ATGGTAAT | -0.0194 |
| AGATCGTA | 0.387 |
| CGTACCAG | 0.39 |
| AGCCGTCA | 0.0375 |
| TTGGACAA | -0.133 |
| ATGTACAT | 0.16 |

| Sequence | PBM E-score |
| --- | --- |
| GCGCTTGA | 0.0423 |
| ACTGAAGG | -0.198 |
| AAACCTGA | 0.021 |
| ACGCACGC | 0.131 |
| CGTAGCCA | 0.201 |
| CAGTGCAG | -0.0314 |
| CTAGGTGA | -0.169 |
| CTTGGTAA | 0.0951 |
| CGGTTGGC | 0.195 |
| GGCAGAAC | -0.135 |
| GAATCGTC | 0.052 |
| ATATTACA | 0.152 |
| AATATAAA | 0.0391 |
| AGTCTAGC | -0.134 |
| GACATCCC | -0.102 |
| ATCTTTGG | -0.206 |
| GATCCTAA | 0.0826 |
| CCAGAGGG | -0.289 |
| CTCAACAA | -0.0893 |
| ATTCGAGG | 0.0605 |
| GATCGGGC | -0.136 |
| ACTTTTAA | -0.0185 |
| CCACGAGC | -0.0694 |
| AGTTTCCC | -0.215 |
| CGCGAAGA | 0.0952 |

| Sequence | PBM E-score |
| --- | --- |
| AGATATGG | -0.0349 |
| AAAGCCAA | -0.185 |
| CCTGTAAA | -0.0269 |
| CCCTGAAA | -0.0709 |
| AGGAACGA | 0.449 |
| CCGACTGC | 0.0197 |
| ACTCAGCT | -0.149 |
| ATCTGCAA | -0.245 |
| ACTCTCGC | 0.186 |
| ACTGCGGA | -0.0568 |
| ACCGCGCT | -0.108 |
| AGACCCAC | -0.0603 |
| ATTTTAGA | -0.0396 |
| GGTCCAAA | -0.236 |
| CAGACTTC | -0.0462 |
| GCAGACAA | -0.0463 |
| AGCACGCC | 0.063 |
| AGGAGGTA | -0.0705 |
| AGAGAGAT | -0.11 |
| CCGCTTCA | -0.0583 |
| ATGGGTTA | -0.00164 |
| GGCCCGAA | 0.0386 |
| TAGAATGA | -0.263 |
| ACCAGTCC | -0.319 |
| ACTTTTTG | -0.124 |

| Sequence | PBM E-score |
| --- | --- |
| GTACTACA | 0.196 |
| ATCCCGAG | 0.0317 |
| ATTAGGCC | -0.153 |
| GAGGAATA | 0.0306 |
| CATGTTAA | 0.0636 |
| GCCGCGAC | -0.0946 |
| AATCATCG | 0.118 |
| GGGCGACA | -0.251 |
| CGGTCCAC | -0.137 |
| AAGAGCCG | -0.101 |
| GGGCACGA | -0.0512 |
| GCCCCGGC | -0.11 |
| AGCTACTA | -0.0239 |
| GACTTATC | -0.147 |
| CACTTGAC | -0.0536 |
| AGAGACGC | -0.123 |
| CGGTTGAA | -0.0167 |
| GTACAGGA | 0.244 |
| ACTGTAAT | -0.0373 |
| ACGCCGTG | -0.0381 |
| ATTCTCAC | -0.0732 |
| CTAGAGCA | -0.192 |
